This is one part of the list.
Tests used:
Test in all cases: glycan array binding signal (z-score within array); higher = stronger binding
Details in all cases: glycan notation: IUPAC condensed, linker removed
[1] = molecular target: Neu5Ac(a2-6)Gal(b1-4)GlcNAc(b1-2)Man(a1-3)[Man(a1-6)]Man(b1-4)GlcNAc(b1-4)GlcNAc
In short: (§1)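 Columns mapping to the same glycan were averaged after glycan names were converted to IUPAC-condensed notation. The data come from 3228 arrays in the Consortium for Functional Glycomics database, limited to those with an available protein sequence. Binding is reported as a within-array Z-score averaged across arrays of one protein sequence and across linkers.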

[2] = molecular target: Neu5Ac(a2-6)Gal(b1-4)GlcNAc(b1-2)Man(a1-3)[Neu5Ac(a2-3)Gal(b1-4)GlcNAc(b1-2)Man(a1-6)]Man(b1-4)GlcNAc(b1-4)GlcNAc
In short: as §1

[3] = molecular target: Neu5Ac(a2-6)Gal(b1-4)GlcNAc(b1-2)Man(a1-3)[Neu5Ac(a2-6)Gal(b1-4)GlcNAc(b1-2)Man(a1-6)]Man(b1-4)GlcNAc(b1-4)GlcNAc
In short: as §1

[4] = molecular target: Neu5Ac(a2-6)Gal(b1-4)GlcNAc(b1-2)Man(a1-3)[Neu5Ac(a2-6)Gal(b1-4)GlcNAc(b1-2)Man(a1-6)]Man(b1-4)GlcNAc(b1-4)[Fuc(a1-6)]GlcNAc
In short: as §1

[5] = molecular target: Neu5Ac(a2-6)Gal(b1-4)GlcNAc(b1-2)Man(a1-6)Man(b1-4)GlcNAc(b1-4)GlcNAc
In short: as §1

[6] = molecular target: Neu5Ac(a2-6)Gal(b1-4)GlcNAc(b1-2)Man(a1-6)[Gal(b1-4)GlcNAc(b1-2)Man(a1-3)]Man(b1-4)GlcNAc(b1-4)GlcNAc
In short: as §1

[7] = molecular target: Neu5Ac(a2-6)Gal(b1-4)GlcNAc(b1-2)Man(a1-6)[GlcNAc(b1-2)Man(a1-3)]Man(b1-4)GlcNAc(b1-4)GlcNAc
In short: as §1

[8] = molecular target: Neu5Ac(a2-6)Gal(b1-4)GlcNAc(b1-2)Man(a1-6)[Man(a1-3)]Man(b1-4)GlcNAc(b1-4)GlcNAc
In short: as §1

[9] = molecular target: Neu5Ac(a2-6)Gal(b1-4)GlcNAc(b1-2)[Neu5Ac(a2-6)Gal(b1-4)GlcNAc(b1-4)]Man(a1-3)[GlcNAc(b1-4)][Neu5Ac(a2-6)Gal(b1-4)GlcNAc(b1-2)[Neu5Ac(a2-6)Gal(b1-4)GlcNAc(b1-6)]Man(a1-6)]Man(b1-4)GlcNAc(b1-4)GlcNAc
In short: as §1

[10] = molecular target: Neu5Ac(a2-6)Gal(b1-4)GlcNAc(b1-2)[Neu5Ac(a2-6)Gal(b1-4)GlcNAc(b1-4)]Man(a1-3)[GlcNAc(b1-4)][Neu5Ac(a2-6)Gal(b1-4)GlcNAc(b1-4)Man(a1-6)]Man(b1-4)GlcNAc(b1-4)GlcNAc
In short: as §1

[11] = molecular target: Neu5Ac(a2-6)Gal(b1-4)GlcNAc(b1-2)[Neu5Ac(a2-6)Gal(b1-4)GlcNAc(b1-6)]Man(a1-6)[Neu5Ac(a2-6)Gal(b1-4)GlcNAc(b1-2)Man(a1-3)][GlcNAc(b1-4)]Man(b1-4)GlcNAc(b1-4)GlcNAc
In short: as §1

[12] = molecular target: Neu5Ac(a2-6)Gal(b1-4)GlcNAc(b1-3)Gal(b1-3)GlcNAc
In short: as §1

[13] = molecular target: Neu5Ac(a2-6)Gal(b1-4)GlcNAc(b1-3)Gal(b1-4)GlcNAc
In short: as §1

[14] = molecular target: Neu5Ac(a2-6)Gal(b1-4)GlcNAc(b1-3)Gal(b1-4)GlcNAc(b1-2)Man(a1-3)[Neu5Ac(a2-6)Gal(b1-4)GlcNAc(b1-3)Gal(b1-4)GlcNAc(b1-2)Man(a1-6)]GalNAc
In short: as §1

[15] = molecular target: Neu5Ac(a2-6)Gal(b1-4)GlcNAc(b1-3)Gal(b1-4)GlcNAc(b1-3)Gal(b1-4)GlcNAc
In short: as §1

[16] = molecular target: Neu5Ac(a2-6)Gal(b1-4)GlcNAc(b1-3)Gal(b1-4)GlcNAc(b1-3)Gal(b1-4)GlcNAc(b1-2)Man(a1-3)[Neu5Ac(a2-6)Gal(b1-4)GlcNAc(b1-3)Gal(b1-4)GlcNAc(b1-3)Gal(b1-4)GlcNAc(b1-2)Man(a1-6)]GalNAc
In short: as §1

[17] = molecular target: Neu5Ac(a2-6)Gal(b1-4)GlcNAc(b1-3)Gal(b1-4)GlcNAc(b1-3)GalNAc
In short: as §1

[18] = molecular target: Neu5Ac(a2-6)Gal(b1-4)GlcNAc(b1-3)Gal(b1-4)GlcNAc(b1-3)[Neu5Ac(a2-6)Gal(b1-4)GlcNAc(b1-3)Gal(b1-4)GlcNAc(b1-6)]GalNAc
In short: as §1

[19] = molecular target: Neu5Ac(a2-6)Gal(b1-4)GlcNAc(b1-3)Gal(b1-4)GlcNAc(b1-6)[Gal(b1-3)]GalNAc
In short: as §1

[20] = molecular target: Neu5Ac(a2-6)Gal(b1-4)GlcNAc(b1-3)Gal(b1-4)[Fuc(a1-3)]GlcNAc(b1-3)Gal(b1-4)[Fuc(a1-3)]GlcNAc
In short: as §1

[21] = molecular target: Neu5Ac(a2-6)Gal(b1-4)GlcNAc(b1-3)GalNAc
In short: as §1

[22] = molecular target: Neu5Ac(a2-6)Gal(b1-4)GlcNAc(b1-3)[Neu5Ac(a2-6)Gal(b1-4)GlcNAc(b1-6)]GalNAc
In short: as §1

[23] = molecular target: Neu5Ac(a2-6)Gal(b1-4)GlcNAc(b1-6)GalNAc
In short: as §1

[24] = molecular target: Neu5Ac(a2-6)Gal(b1-4)GlcNAc(b1-6)[Gal(b1-3)GlcNAc(b1-3)]Gal(b1-4)Glc
In short: as §1

[25] = molecular target: Neu5Ac(a2-6)Gal(b1-4)GlcNAc(b1-6)[Gal(b1-3)]GalNAc
In short: as §1

[26] = molecular target: Neu5Ac(a2-6)Gal(b1-4)GlcNAc6S
In short: as §1

Neu5Ac(a2-6)GalNAc = molecular target: Neu5Ac(a2-6)GalNAc
In short: as §1

[27] = molecular target: Neu5Ac(a2-6)GalNAc(b1-4)GlcNAc
In short: as §1

[28] = molecular target: Neu5Ac(a2-6)GalNAc(b1-4)GlcNAc6S
In short: as §1

[29] = molecular target: Neu5Ac(a2-6)GlcNAc(b1-4)GlcNAc
In short: as §1

[30] = molecular target: Neu5Ac(a2-6)GlcNAc(b1-4)GlcNAc(b1-4)GlcNAc
In short: as §1

B1: PX9961V-pdi-562-26-562 (Parabacteroides distasonis) (protein)
chain: EIFSEITTDNYYQNSNNIYAALVNNYAKAFSTGWSDARYFLQEVTADQLMIPTRGKHGYNGGEYVRLHEHKWTVEENFVYNGWAAPFQGIALCNNTLSDFENLDFSTFKLTEETKNEYIAELRALRVWNYMFLIDFFRHVPIVTDIEEVKAQSTPLEVFNFMESELLAILPDLPKNRGVSRFDQAGVASILVRLYLNAEKWIGISKYDECEQMAQAILDGKYGEYSIDPDYRGPFRSGINGYRSKENIMEFAIKKNYFEASWLYNMWMHYQDRYSLDNDWQGWNGGNLAPSRDLYGNLYQDKLGMPFEKFPDGDIRKKAFRVISNDGDYEGFFLMGTQYKFDYEKGYGFTDEVITGTEEYNGKPLVYVDQVGRFSEGETGLAKGSHVIYGEENTGYRLIKFPWLPQSKDLFQMNSIPEIRLAEIYYSLAECKYRSGDKIGAARLLDVVRKRYYKAEDWSKFSYESNISKLTDDEFVDELGREFIGERHRRIDLIRWNRFSEGAWWDKTPDATNQDVFPIPYRALNANPLLKQTTAGF
Which results are given for B1?
glycan array binding signal (z-score) [1]: -0.231; glycan array binding signal (z-score) [2]: -0.704; glycan array binding signal (z-score) [3]: -0.251; glycan array binding signal (z-score) [4]: -0.043; glycan array binding signal (z-score) [5]: -0.374; glycan array binding signal (z-score) [6]: -0.754; glycan array binding signal (z-score) [7]: -0.252; glycan array binding signal (z-score) [8]: 1.46; glycan array binding signal (z-score) [9]: 0.711; glycan array binding signal (z-score) [10]: 0.137; glycan array binding signal (z-score) [11]: 0.515; glycan array binding signal (z-score) [12]: -0.154; glycan array binding signal (z-score) [13]: -0.199; glycan array binding signal (z-score) [14]: 3.24; glycan array binding signal (z-score) [15]: -0.589; glycan array binding signal (z-score) [16]: 2.14; glycan array binding signal (z-score) [17]: -0.177; glycan array binding signal (z-score) [18]: -0.255; glycan array binding signal (z-score) [19]: -0.312; glycan array binding signal (z-score) [20]: 0.588; glycan array binding signal (z-score) [21]: 0.398; glycan array binding signal (z-score) [22]: -0.166; glycan array binding signal (z-score) [23]: -0.271; glycan array binding signal (z-score) [24]: -0.349; glycan array binding signal (z-score) [25]: -0.27; glycan array binding signal (z-score) [26]: -0.448; glycan array binding signal (z-score) (Neu5Ac(a2-6)GalNAc): -0.5; glycan array binding signal (z-score) [27]: -0.355; glycan array binding signal (z-score) [28]: -0.742; glycan array binding signal (z-score) [29]: -0.416; glycan array binding signal (z-score) [30]: -0.609
